Results on 42 sequences are retold here after publication PMC7819943, “Rice protein-binding microarrays: a tool to detect cis-acting elements near promoter regions in rice”.

The other results are listed elsewhere or left out.

The assay has as its target T1, OsWOX13 (Oryza sativa, UniProt Q5QMM3 1-267).
T1 sequence: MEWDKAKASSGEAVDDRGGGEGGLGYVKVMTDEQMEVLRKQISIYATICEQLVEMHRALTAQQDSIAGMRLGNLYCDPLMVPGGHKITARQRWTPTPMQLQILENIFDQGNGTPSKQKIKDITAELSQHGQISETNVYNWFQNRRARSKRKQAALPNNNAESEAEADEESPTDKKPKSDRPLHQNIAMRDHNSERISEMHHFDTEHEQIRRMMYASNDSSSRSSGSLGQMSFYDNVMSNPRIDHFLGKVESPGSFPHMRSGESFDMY
Kind of assay: protein-binding microarray (RPBM); PBS, 2% BSA, 51.3 ng/ul salmon testes DNA, 50 uM zinc acetate, 200 nM TF, 25 C, 1 h; high values mean tight binding. The conditions noted are these: protein: recombinant; tags: N-terminal polyhistidine and DsRed monomer fusion (pET32a); label: CyDye5-dUTP incorporated in the synthesized complementary strand; 3' TTTTT single-stranded linker to array surface; dsDNA, one strand shown. The gist of the method:
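Per-feature fluorescence intensity (arbitrary units), read on an Axon 4000B scanner, is the binding signal. Transcription factors carrying an N-terminal polyhistidine tag and DsRed fusion were expressed in E. coli BL21-CodonPlus and purified on Ni–NTA. A custom Agilent array, made double-stranded by primer extension with Cy5-dUTP and blocked with 2% BSA, was incubated with 200 nM protein in PBS, 2% BSA, salmon testes DNA and 50 µM zinc acetate at 25 °C for 1 h and then washed.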
With “TAAATAATTTGTCTATCACTTTTCCTACTCTTTGCACTTACGGAGTCACCTAGTGCAG”, the binding signal is 14700 fluorescence intensity (a.u.).

On to “ACATGTTAATCAGCTTTAATTAACTAGTGATCGATTAGCACGGAGTCACCTAGTGCAG”, for which the binding signal was 19200 fluorescence intensity (a.u.).

For “TTATAATTTTCCCTAAATATTATATACATGTAGGTGAGTTCGGAGTCACCTAGTGCAG”, the binding signal is 17700 fluorescence intensity (a.u.).

As to “CACTAACAGATTAGTTGGATGACTAGCTAGATAAGAAGGCCGGAGTCACCTAGTGCAG”, the binding signal was 40500 fluorescence intensity (a.u.).

Turning to “TTTTACTGATTAGGCCATCTGATACGAGCCAGAGACCGGTCGGAGTCACCTAGTGCAG”, the binding signal is 21500 fluorescence intensity (a.u.).

Consider “CCGGTTCTTATAATTAATAATTAGGGCCGGTTTGTTATGACGGAGTCACCTAGTGCAG”, for which the binding signal was 12100 fluorescence intensity (a.u.).

Turning to “GATTAATCACCGTCTAGATGGGCTAGGCGGCCGTTTAGGCCGGAGTCACCTAGTGCAG”, the binding signal was 4450 fluorescence intensity (a.u.).

As for “ACCTTTAAATTTAAATTTTGGCTAACGAGAGCGGATGAAACGGAGTCACCTAGTGCAG”, the binding signal was 15300 fluorescence intensity (a.u.).

As for “CTTCTAATTATTTGATATTAGGTCATTCTCTAATATTCACCGGAGTCACCTAGTGCAG”, the binding signal was 21400 fluorescence intensity (a.u.).

With “CATTGATTGGATCGTACGCTTGTGTTGCATGACCAATGATCGGAGTCACCTAGTGCAG”, the binding signal was 44200 fluorescence intensity (a.u.).

Consider “TATGATCTAACAAATTGTTATTTCCAAGGATCATATAAAACGGAGTCACCTAGTGCAG”, for which the binding signal is 5440 fluorescence intensity (a.u.).

As for “TGGATTAATTTCTCCTCTTCTCTTCCTCCCGTTTATAATACGGAGTCACCTAGTGCAG”, the binding signal is 6370 fluorescence intensity (a.u.).

Regarding “GAAATTGACGCTACAACGACTAACAAAATGCCGAAGCGTCCGGAGTCACCTAGTGCAG”, the binding signal is 16800 fluorescence intensity (a.u.).

Regarding “TCGACAAATTGACAAAGTGAAGCTTATACATGGTTCTGTTCGGAGTCACCTAGTGCAG”, the binding signal was 42200 fluorescence intensity (a.u.).

Turning to “TCCAAACATATAATTAGTTAGGTATGTAATTATGGATTGTCGGAGTCACCTAGTGCAG”, the binding signal is 24400 fluorescence intensity (a.u.).

As to “AAATGATTATATCTTAGTTTTAACTTAAACAACTATTTGCCGGAGTCACCTAGTGCAG”, the binding signal was 22100 fluorescence intensity (a.u.).

Turning to “TAGGCAAAGCTTGATTGGGATCCTCCAAAGTAAATTCAGACGGAGTCACCTAGTGCAG”, the binding signal is 3760 fluorescence intensity (a.u.).

On to “ATCTAGAAATTAAATTACCTACGGTTAATTCGAAGGTGGACGGAGTCACCTAGTGCAG”, for which the binding signal was 12900 fluorescence intensity (a.u.).

“ATGACAGCAATTCCGATATCTAATAAGATTGAAAATATTGCGGAGTCACCTAGTGCAG”: the binding signal was 14800 fluorescence intensity (a.u.).

“ATATGATATTTGTCCATCTTAATTGCTTATAAGCTGTATACGGAGTCACCTAGTGCAG”: the binding signal is 5090 fluorescence intensity (a.u.).

As for “AAATGGATTAGTATCTATCATGCGTGAATTATCGAAATGACGGAGTCACCTAGTGCAG”, the binding signal was 4120 fluorescence intensity (a.u.).

For the sequence “AGTCTAATTGAGTGATTGTATACATGTTCAATGTTCATGGCGGAGTCACCTAGTGCAG”, the binding signal is 65300 fluorescence intensity (a.u.).

As for “CCATAATTAGAGAATGTTTACTGTAGAATCATATAGGTTACGGAGTCACCTAGTGCAG”, the binding signal was 27000 fluorescence intensity (a.u.).

“ACTGATGATGCACTTGATTTGGATAATCTTCAGCACAAACCGGAGTCACCTAGTGCAG”: the binding signal is 29900 fluorescence intensity (a.u.).

In the case of “TTGCAAACTGACAGGACAAACAAACTACCAATATCAATCACGGAGTCACCTAGTGCAG”, the binding signal is 14300 fluorescence intensity (a.u.).

For the sequence “CAGTTTAATAATTATGTTGAGTAAAATTTGATGATAAACCCGGAGTCACCTAGTGCAG”, the binding signal is 14600 fluorescence intensity (a.u.).

For the sequence “CTAGAGATTGACGATACGTTGCCTACCACTAAAAGCACAACGGAGTCACCTAGTGCAG”, the binding signal is 24100 fluorescence intensity (a.u.).

Consider “GTATAAAATATTAATTATGTTTTATCATCTAACAACAATACGGAGTCACCTAGTGCAG”, for which the binding signal is 8450 fluorescence intensity (a.u.).

“ATGTTTAATCAACCTCTAAATCAATAAGATTAGTCATGTACGGAGTCACCTAGTGCAG”: the binding signal was 3760 fluorescence intensity (a.u.).

As for “GGGTTTGCGTTCACGAGAATGATTGAGTAACGGCAGTTGGCGGAGTCACCTAGTGCAG”, the binding signal is 5210 fluorescence intensity (a.u.).

Take “TGACACAATTAGCTTTTGATTAATCAATGGTGCTGATTGACGGAGTCACCTAGTGCAG”: the binding signal is 28800 fluorescence intensity (a.u.).

With “GCGATCACATGACGGTAATTAATCAATAACTAATCCAGCTCGGAGTCACCTAGTGCAG”, the binding signal was 6280 fluorescence intensity (a.u.).

Consider “GCGATCCTGAAATTAATTGCTATGATCTATTTTCGGCTGTCGGAGTCACCTAGTGCAG”, for which the binding signal is 10300 fluorescence intensity (a.u.).

In the case of “ATTTAAATGACGGTTTCGTCCTACGTGGTACATTGACCCGCGGAGTCACCTAGTGCAG”, the binding signal was 6700 fluorescence intensity (a.u.).

Consider “CCTAATTAATCTATCATTAGCAAAATATTTACTGTAGCACCGGAGTCACCTAGTGCAG”, for which the binding signal is 44400 fluorescence intensity (a.u.).

Regarding “TGAGATTGGAGTGTACCTATCACTGCAACCAACTTTGCTACGGAGTCACCTAGTGCAG”, the binding signal is 9490 fluorescence intensity (a.u.).

For the sequence “ATATATAATTTGTGAATTAGTTTTGGTTCTTTCACAAACACGGAGTCACCTAGTGCAG”, the binding signal is 27600 fluorescence intensity (a.u.).

As for “GACTTCCAATTTACTATGTTTATTACAAGCCTATCCACTACGGAGTCACCTAGTGCAG”, the binding signal is 5180 fluorescence intensity (a.u.).

For the sequence “TTTGATTCCAGTCAATAGATTAACTAGTCAACTTTACTAACGGAGTCACCTAGTGCAG”, the binding signal is 16500 fluorescence intensity (a.u.).

“TTAATCAAACCTTCAATTTTAACGTGTAACTAAACACAGCCGGAGTCACCTAGTGCAG”: the binding signal is 3770 fluorescence intensity (a.u.).

For the sequence “CGGTGGAGATGGAGATTAATTGAGCTCGAGTGTGAGACTACGGAGTCACCTAGTGCAG”, the binding signal is 14500 fluorescence intensity (a.u.).

For “GAGGATTTGCTAATCAAATTCATCATGAACATTGGTTGGACGGAGTCACCTAGTGCAG”, the binding signal was 13000 fluorescence intensity (a.u.).
